{
  "source": "patent US12036189B2",
  "about": "“Method of treating major depressive disorder” (priority 2018, dated 2024)",
  "test_system": "bone marrow cells of Crl:CD(SD) rats",
  "assay": "Mammalian erythrocyte micronucleus test",
  "conditions": "male or female rats, oral gavage",
  "data": [
    {"smiles": "CN[C@]1(c2ccccc2Cl)CCCCC1=O", "note": "[esketamine, (2S)-2-(2-Chlorophenyl)-2-(methylamino) cyclohexanone]", "values": [
      {"measurement": "induction of micronucleated polychromatic erythrocytes or bone marrow cell toxicity (study conclusion)", "result": "not shown any evidence"}
    ]}
  ]
}
